Assay results: the RNAGym collection of RNA variant scans (doi:10.7554/elife.90254)
The source gives no read counts; variants with many changes may rest on few reads.

B1: LINE1-mini (parent)
chain: GGCAGAGCUCAACACAGCGUGGCAAAGUGGCUGUGGCUAGACUGCC

Variants of: B1
Test: self-cleavage, relative activity (ratio to wild type); higher = more cleavage; in vitro, sequencing; the parent is a self-cleaving ribozyme

Row | Variant | self-cleavage
1 | C8A U9C C23A G36C | 0.03
2 | C8A A14U A26C G27C U34A | 0.12
3 | C8A C10U C15G G36A G44C | 0.1
4 | C8A G19A G22C G33C G40C C46G | 0.04
5 | C8A G35C C42U G44C | 0.14
6 | C8A U9C C10U G40U U43A | 0.05
7 | C8A C23A A39U | 0.06
8 | C8A G27C G36A | 0.12
9 | C8A C10G C18U G36C C37A G40U | 0.01
10 | C8A G17U U34G | 0.17
11 | C8A C13A G36U A41U C46G | 0.08
12 | C8A C10A G17C A24C G29C G36A | 0.02
13 | C8A A26U U32G | 0.18
14 | C8A C13A C23U | 0.33
15 | C8A C13A C23A | 0.44
16 | C8A C13A C31G G33U G35C | 0.02
17 | C8A A14U G30C | 0.1
18 | C8A A16G C31U G33A C37U | 1.13
19 | C8A G22A A24C G36U G40U A41C | 0.02
20 | C8A G19C G27U A41C | 0.07
21 | C8A C18A A24C A41C | 0.03
22 | C8A A16U G27C | 0.74
23 | C8A C15A A41U | 0.59
24 | C8A G33U C42U | 0.08

Row | Variant | self-cleavage
25 | C8A U9C C10G A24G | 0.03
26 | C8A G33U C45A | 0.14
27 | C8A G33U C45G | 0.27
28 | C8A A16U G40C | 0.11
29 | C8A C13G A16G G17U U28A G33A C45A | 0.32
30 | C8A C23A C42U | 0.12
31 | C8A G36A C37U | 0.33
32 | C8A C13A C18U A25G U28C C37U A39G | 0.41
33 | C8A C13A A16C A39G | 0.17
34 | C8A A16U U28A | 0.08
35 | C8A G17A C18A C46G | 0.31
36 | C8A U9G G19U G27U G33C | 0.04
37 | C8A A14U G33A A39G G40A C45G | 0.1
38 | C8A U9G G33A | 0.03
39 | C8A G17U C42G | 0.2
40 | C8A C31U G40U | 0.09
41 | C8A G17U C23A G27A | 0.35
42 | C8A G19U C46U | 0.03
43 | C8A C13A G19A G21A G22A U28C G30C | 0.16
44 | C8A U9C G44C | 0.1
45 | C8A G21U G29A C46A | 0.11
46 | C8A U9C A14C G22C | 0.06
47 | C8A C10U G22C A41U | 0.02
48 | C8A G19C A26U C31U G44C | 0.03

Row | Variant | self-cleavage
49 | C8A U9A G22C A39U G40U | 0.12
50 | C8A G35U G40C C45G | 0.06
51 | C8A A14G C18A U20G | 0.12
52 | C8A G30A U32A | 0.04
53 | C8A G22C G30C | 0.21
54 | C8A G22A U32C A41C C45A | 0.02
55 | C8A U9C A24U | 0.14
56 | C8A C18U G21U | 0.3
57 | C8A U9A C13A U20A U38C | 0.15
58 | C8A U9A C23A A24G | 0.08
59 | C8A G29A G40U C46U | 0.11
60 | C8A A16G G29A | 0.11
61 | C8A C15U G22A G27A | 0.6
62 | C8A C10A A16G C18U G40C | 0.08
63 | C8A C15U A39U | 0.49
64 | C8A U9A A26U U28C G36A A39G | 0.09
65 | C8A C45U C46A | 0.52
66 | C8A C31G U34G | 0.33
67 | C8A C23G G35U | 0.2
68 | C8A A14C C31U | 0.05
69 | C8A A16U G36A | 0.04
70 | C8A A14U A16G U20C | 0.09
71 | C8A C13U A14U | 0.4
72 | C8A C13U A14C | 0.19

Row | Variant | self-cleavage
73 | C8A C15U A41G | 0.38
74 | C8A C15U A25G | 0.12
75 | C8A C15U A25C | 0.41
76 | C8A G40U U43A | 0.14
77 | C8A C23G C37U C46A | 0.24
78 | C8A A14U C42A | 0.32
79 | C8A G33C G36C | 0.07
80 | C8A G30U U43A | 0.15
81 | C8A U9G A12C A25U C37G | 0
82 | C8A C13U G19U U20G G36C | 0.72
83 | C8A G19C G35A G44A | 0.08
84 | C8A A16C A24C G33C G40U | 0.14
85 | C8A G19C G21A | 0.06
86 | C8A G17A U38G | 0.09
87 | C8A A16U C18G | 0.1
88 | C8A C13U G17A A25U A26G U38A | 0.23
89 | C8A C15U G22A G33C | 0.08
90 | C8A G29C G40U | 0.09
91 | C8A G19U C23G | 0.05
92 | C8A G29U G30A | 1.47
93 | C8A C10G A11G A16U | 0
94 | C8A G35U C37A A41U C45A | 0.03
95 | C8A U9C C10G G19U G33C | 0.01
96 | C8A A14G G33A C37U | 0.06

Row | Variant | self-cleavage
97 | C8A C10G C13G A14U | 0.03
98 | C8A U9G C13G | 0.02
99 | C8A C31A U38A G44U | 0.14
100 | C8A C13A C18G U38A G40A | 0.08
101 | C8A G33U G40U | 0.05
102 | C8A A16U U20C G27C U32A | 0.09
103 | C8A U9A C31U | 0.05
104 | C8A U9C U28A U34C C46A | 0.15
105 | C8A U9A G21U | 0.07
106 | C8A C15A G21A | 0.56
107 | C8A G17C G27U G33C A41G C42A | 0.03
108 | C8A A16C U20C G21C A25G G36C A39C | 0.04
109 | C8A C10U A14C A41C | 0.02
110 | C8A A25G U28A G29A G35U | 0.08
111 | C8A G30A A41U | 0.26
112 | C8A A14G G17U A24U G30U C42G | 0.24
113 | C8A G30U G40C U43G | 0.23
114 | C8A C13U C46U | 0.74
115 | C8A C13A C15U U20C | 0.33
116 | C8A A16U C31U A39G | 0.16
117 | C8A G27U G29A C37U G40A | 0.16
118 | C8A C13U A24C | 0.24
119 | C8A C13A G29U G40U | 0.06
120 | C8A A25U U34G | 0.12

Row | Variant | self-cleavage
121 | C8A A14C G30U | 0.21
122 | C8A U9A C31A G44U | 0.03
123 | C8A G27C U28G G29A G36C C46U | 0.23
124 | C8A G30U G44A | 0.06
125 | C8A A14U C23A A25C | 0.1
126 | C8A G22U U38A C46U | 0.11
127 | C8A A26U U28G U34C | 0.01
128 | C8A G27A C37U G44U | 0.02
129 | C8A C10U C31U A41G C46G | 0.02
130 | C8A G30C U32G G35A | 0.04
131 | C8A G29C A39G | 0.02
132 | C8A U9A C18A U28A | 0.25
133 | C8A C23A G27U A39G U43A | 0.06
134 | C8A C13A G19A C37U | 0.67
135 | C8A G19U C23A C46A | 0.08
136 | C8A G30U U34A C37U | 0.15
137 | C8A C31A U38C | 0.19
138 | C8A G36C C42A | 0.16
139 | C8A G17A C23A A26U G30C G33A A41G | 0.07
140 | C8A C31A C37A | 0.1
141 | C8A G17U G44C | 0.11
142 | C8A C15A U20C G33U G36A | 0.27
143 | C8A C10A G19U G21C G35U C42A | 0.06
144 | C8A C18A A39G C45A | 0.03

Row | Variant | self-cleavage
145 | C8A G36U A39U | 0.05
146 | C8A A24U C31A | 0.07
147 | C8A A14G A24C U34G | 0.04
148 | C8A U9G G22C A24U | 0.07
149 | C8A C15G A16G G35A | 0.09
150 | C8A A14G U20C A24U | 0.05
151 | C8A G17A G19U A41G U43G | 0.05
152 | C8A G33A U38C | 0.4
153 | C8A G33A U38A | 1.21
154 | C8A U9G U38G A39G | 0.05
155 | C8A A26C U43G | 0.02
156 | C8A A14G A24U G40A | 0.06
157 | C8A A16G A25U U34C C37A | 0.13
158 | C8A C31A G35C C37A U38A G44A | 0.03
159 | C8A A26C U28C C46A | 0
160 | C8A A14U C31U C37G | 0.04
161 | C8A A16U C23A A41U | 0.35
162 | C8A C15U G29U | 2.62
163 | C8A C18A A39G | 0.11
164 | C8A A14U G36A C45A | 0.28
165 | C8A A16G C37G A41U | 0.19
166 | C8A G22A U28C | 0.08
167 | C8A A26U G27A A41G | 0.16
